Data published in patent US11446314B2, “Immunoablative therapies” (AVM Biotechnology LLC, priority 2018, dated 2022).

Legend:
peripheral blood cells [1] = experiment: Flow cytometry and complete blood count in male mice after oral dexamethasone
Source text: FIG. 9. […] Treg lymphocytes were identified by being CD3+CD4+CD25+FoxP3+.
FIG. 12. […] Cells/ul=absolute numbers obtained from CBC.

peripheral blood cells [2] = experiment: Complete blood count in rats 48 hours after IV or PO dexamethasone
Experimental: FIG. 7. […] Data in FIGS. 3, 4, and 6 are from the same rats. […] Oral (left) and IV (right) doses were administered 1×48 hours before blood withdrawal.

[3] = male mice, 12 mg/kg HED group vs control, 24-48 hours

## C[C@@H]1C[C@H]2[C@@H]3CCC4=CC(=O)C=C[C@]4(C)[C@@]3(F)[C@@H](O)C[C@]2(C)[C@@]1(O)C(=O)CO [dexamethasone]
Peripheral blood cells [1]; C57B1 male mice, vs placebo, 24-48 hours
  reduction of absolute lymphocyte count: 84%
Peripheral blood cells [1]; [3]
  reduction in B cells: 83%
  reduction in CD3+ cells: 65%
  reduction in CD4+ cells: 75%
  reduction in CD8+ cells: 56%
  reduction in NK cells: 87%
  reduction in Tregs: 78%
Peripheral blood cells [1]; normal mice, HED doses greater than 12 mg/kg
  lymphoablation: almost complete lymphoabalation
Peripheral blood cells [2]
  RBCs, platelets, Hct, HgB: not affected
